The source of these data is a collection of fitness landscapes (doi:10.1016/j.celrep.2020.107928).

First the molecules themselves.
B1: Caulobacter ParB omega fusion; a variant is named by its letters at X, in order, B8GW30 (parent)
chain: MESVVVGEPGMSEGRRGLGRGLSALLGEVDAAPAQAPGEQLGGSREAPIEILQRNPDQPRRTFREEDLEDLSNSIREKGVLQPILVRPSPDTAGEYQIVAGERAWRAAQRAGLKTVPIMVRELDDLAVLEIGIIENVQRADLNVLEEALSYKVLMEKFERTQENIAQTIGKSXSHVANXMRLLXLPDEVQSYLVSGELTAXHARAIAAAADPVALAKQIIEGGLSVRETEALARKAPNLSAGKSKGGRPPRVKDTDTQALESDLSSVLGLDVSIDHRGSTGTLTITYATLEQLDDLCNRLTRGI

In all, about 81,000 sequences were measured (“one-hybrid fitness for binding parS DNA”: median about -0.17, highest 2% from about 0.51 on). The list shows a part of the results.

The assay covers variants of B1. The assay can be described thus: one-hybrid fitness for binding parS DNA (scaled: cognate 1, non-cognate 0); higher = stronger binding. Particulars: with parS DNA site. The essentials: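 Bacterial one-hybrid selection in E. coli USO rpoZ- hisB- pyrF- with a HIS3 reporter carrying the site 19 bp from the promoter, screening Caulobacter ParB libraries with four specificity codons randomised (NNS). Cells grew 48 hours at 37°C on M9-minus-histidine plus 0.1 mM IPTG and 5 mM 3-AT. Plasmids before and after selection were Illumina-sequenced, three replicate libraries pooled, and variants under 10 reads dropped. Fitness is the log change in variant-to-wild-type read ratio, rescaled to cognate 1, non-cognate 0.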
Regarding TDQF, the “one-hybrid fitness for binding parS DNA” value is ≤ 0.2.
As for RVRW, the “one-hybrid fitness for binding parS DNA” value turned out to be 0.224.
The value for HHAA was ≤ 0.2; that for MERS was ≤ 0.2.
The value for IHDS was ≤ 0.2; that for WVGT was ≤ 0.2.
The value for PGSF was ≤ 0.2; that for VESL was ≤ 0.2; that for ATDR was ≤ 0.2.
Turning to IYPY, the “one-hybrid fitness for binding parS DNA” value was ≤ 0.2.
The value for RFHS was 0.996.
With TPTK the figure was ≤ 0.2.
With KQLR the figure was ≤ 0.2.
In the case of GCLF, the “one-hybrid fitness for binding parS DNA” value is ≤ 0.2.
The value for QTSH was ≤ 0.2.
The value for NITE was ≤ 0.2; that for IQDR was ≤ 0.2.
With AKLH the figure was ≤ 0.2; with RCGN, 0.445; with VKRS, ≤ 0.2.
For the variant RCPL, the “one-hybrid fitness for binding parS DNA” value is ≤ 0.2.
On to SFLY, for which the “one-hybrid fitness for binding parS DNA” value is ≤ 0.2.
With SYWS the figure was ≤ 0.2; with YHIF, ≤ 0.2; with FWMR, ≤ 0.2.
The value for NPKE was ≤ 0.2; that for YWIC was ≤ 0.2; that for QLGF was ≤ 0.2.
Take RDNG: the “one-hybrid fitness for binding parS DNA” value is ≤ 0.2.
The value for IQFG was ≤ 0.2; that for PTKL was ≤ 0.2; that for MQQW was ≤ 0.2.
For PCLY, the “one-hybrid fitness for binding parS DNA” value is ≤ 0.2.
FSMP: the “one-hybrid fitness for binding parS DNA” value was ≤ 0.2.
The value for SFSC was ≤ 0.2; that for HQRY was ≤ 0.2; that for FAIR was ≤ 0.2.
For PTWC, the “one-hybrid fitness for binding parS DNA” value was ≤ 0.2.
The value for TAVC was ≤ 0.2; that for RIHV was ≤ 0.2; that for EPNC was ≤ 0.2.
The value for YGQG was ≤ 0.2; that for RGFD was ≤ 0.2; that for SIMG was ≤ 0.2.
The value for TVHC was ≤ 0.2; that for WGLF was ≤ 0.2; that for NTEY was ≤ 0.2.
FTHT: the “one-hybrid fitness for binding parS DNA” value was ≤ 0.2.
With TVNC the figure was ≤ 0.2; with PCPP, ≤ 0.2.
The value for RSQL was ≤ 0.2; that for RCEL was ≤ 0.2; that for TNEG was ≤ 0.2.
Turning to MRPK, the “one-hybrid fitness for binding parS DNA” value was ≤ 0.2.
As for AGII, the “one-hybrid fitness for binding parS DNA” value is ≤ 0.2.
The value for TRSF was ≤ 0.2; that for SLGM was ≤ 0.2; that for DEMR was ≤ 0.2.
The value for GNQG was ≤ 0.2.
With GRIF the figure was ≤ 0.2.
Take PTGI: the “one-hybrid fitness for binding parS DNA” value was ≤ 0.2.
The value for ALYM was ≤ 0.2; that for AGFS was ≤ 0.2; that for SSEA was ≤ 0.2.
On to NEPT, for which the “one-hybrid fitness for binding parS DNA” value is ≤ 0.2.
With KAMC the figure was ≤ 0.2; with RPAE, ≤ 0.2; with PPYS, ≤ 0.2.
With AKLF the figure was ≤ 0.2; with RIND, 0.258.
With CKFS the figure was ≤ 0.2; with EEYA, ≤ 0.2; with DRPT, ≤ 0.2.
For the variant VNAL, the “one-hybrid fitness for binding parS DNA” value is ≤ 0.2.
The value for HPNN was ≤ 0.2.
With IRTQ the figure was ≤ 0.2.
The value for GNTK was ≤ 0.2; that for CCYS was ≤ 0.2; that for YRQS was 0.208.
In the case of TQVP, the “one-hybrid fitness for binding parS DNA” value is ≤ 0.2.
The value for LHVN was ≤ 0.2.
The value for SGKF was ≤ 0.2; that for DQTS was ≤ 0.2; that for YPNS was ≤ 0.2.
As for RCNS, the “one-hybrid fitness for binding parS DNA” value was 0.908.
For the variant TRMA, the “one-hybrid fitness for binding parS DNA” value is ≤ 0.2.
The value for WDSP was ≤ 0.2; that for RLGN was 0.469; that for ASPG was ≤ 0.2.
With DEPL the figure was ≤ 0.2.
The value for IKCC was ≤ 0.2; that for IESL was ≤ 0.2; that for SSPW was ≤ 0.2.
Consider TRQM, for which the “one-hybrid fitness for binding parS DNA” value was ≤ 0.2.
With RYSM the figure was 0.302; with PLIQ, ≤ 0.2; with QENG, ≤ 0.2.
The value for LCAE was ≤ 0.2.
